This note sets out measurements from the supplement of paper PMC3334620.

In all, about 33,000 sequences were measured (“E-score (-0.5 to 0.5)”: median about -0.041, highest 2% from about 0.37 on). The list shows a part of the results.

The target in this assay is T1, Ecm22 (UniProt Q05958).
T1 sequence: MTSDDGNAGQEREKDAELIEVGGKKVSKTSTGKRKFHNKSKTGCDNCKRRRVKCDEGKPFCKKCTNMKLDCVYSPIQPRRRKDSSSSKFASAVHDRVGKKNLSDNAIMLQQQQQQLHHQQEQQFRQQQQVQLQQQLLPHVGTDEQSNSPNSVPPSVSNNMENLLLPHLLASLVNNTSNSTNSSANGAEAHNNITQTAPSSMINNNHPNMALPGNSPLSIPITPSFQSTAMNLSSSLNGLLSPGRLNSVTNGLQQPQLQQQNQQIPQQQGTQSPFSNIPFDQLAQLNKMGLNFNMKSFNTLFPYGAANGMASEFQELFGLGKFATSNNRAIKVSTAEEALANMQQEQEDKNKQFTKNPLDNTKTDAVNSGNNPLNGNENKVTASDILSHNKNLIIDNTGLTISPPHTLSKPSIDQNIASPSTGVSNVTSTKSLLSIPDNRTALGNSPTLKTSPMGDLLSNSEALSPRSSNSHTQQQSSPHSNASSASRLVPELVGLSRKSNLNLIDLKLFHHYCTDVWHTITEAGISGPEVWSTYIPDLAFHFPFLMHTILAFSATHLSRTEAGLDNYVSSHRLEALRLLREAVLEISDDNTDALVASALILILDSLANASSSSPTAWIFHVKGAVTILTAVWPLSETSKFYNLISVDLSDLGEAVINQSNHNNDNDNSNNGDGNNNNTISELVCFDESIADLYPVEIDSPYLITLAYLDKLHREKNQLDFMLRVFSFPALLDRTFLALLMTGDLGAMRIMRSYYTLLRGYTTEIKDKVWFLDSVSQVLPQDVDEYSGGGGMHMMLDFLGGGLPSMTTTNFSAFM
The assay is described as follows: PBM E-score (8-mer binding enrichment) (E-score (-0.5 to 0.5)); higher = stronger / more preferred TF binding; most listed sequences are background and not binding sites. Conditions: protein concentration: 200 nM; construct: GST-full length. Summed up:
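For each ungapped eight-base word taken together with its reverse complement, the Universal PBM Analysis Suite assigned an E-score. Binding data came from GST-tagged yeast transcription factors, applied at about 100-200 nM, on universal all-10-mer Agilent arrays made double-stranded by primer extension. Fluorescent anti-GST marked bound protein, and scans were normalised with masliner.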
With ATGCAGGC, the “PBM E-score” value was -0.172. The result for ATTCCACC reads -0.104. The result for ACTGACAC reads -0.0886. To AAGGGAAT belongs -0.0433; to GAGCCGAA, 0.0885.

For the sequence ATCGAAGA, the “PBM E-score” value came to 0.0933.

Take GCCCCCAC: the “PBM E-score” value is -0.354.

As to CTCCTCTC, the “PBM E-score” value was -0.0778.

Turning to TTCCACAA, the “PBM E-score” value was -0.0103. Consider TACAGCCA, for which the “PBM E-score” value was -0.127. To CGTAATAA belongs 0.247; to CGCACTAA, 0.212; to ACGAGGAC, 0.42.

As to CGTATCGC, the “PBM E-score” value was determined as 0.35. The result for CGGATCAC reads 0.0711. To GCCTTACA belongs -0.112; to TATACGGA, 0.439. The result for CCCTTTAA reads -0.0773. In the case of AGACAGCC, the “PBM E-score” value was -0.0609. The result for CCACCGTC reads -0.179; that for TATGCTAA, -0.0579. The result for AGTAAGCG reads 0.0638; that for AAGTTCTC, 0.0253; that for AAGTACCG, 0.152. To CACGCCTG belongs -0.335; to CTGAACGA, 0.456. With ATGCCGTA, the “PBM E-score” value was 0.335. Take CGCATTGC: the “PBM E-score” value was determined as 0.00365.

With GTCACATA, the “PBM E-score” value was 0.033. To AACCGATC belongs 0.174; to CTCCGGCC, -0.256; to CACACACC, -0.0532. The result for CTCTCTCA reads -0.283; that for CATCTCAC, -0.0428; that for ACATCGTG, 0.0443.

As to AAGGATTG, the “PBM E-score” value was -0.186.

As for AGCACCAA, the “PBM E-score” value was -0.248. The result for AAGTTTGT reads -0.176. The result for CCATCCGC reads 0.111; that for CCCGTAAA, 0.32; that for CATATTAG, 0.0639. Consider AGGCTCCA, for which the “PBM E-score” value was -0.369. For the sequence GTATGTAA, the “PBM E-score” value was 0.209.

With GACCGGTC, the “PBM E-score” value was -0.0983. The result for GACCTTCC reads -0.106; that for ACACGGAC, 0.0435. The result for CACAATTA reads 0.117. In the case of ATTCCTGG, the “PBM E-score” value is -0.248. To GCGGCCAA belongs -0.0853. To GAAGGGGA belongs -0.285. To ATTACTAG belongs -0.234; to ACATGGGA, -0.0526; to GGCTTGTA, -0.0785.

For GTAATCAC, the “PBM E-score” value was determined as 0.0227. The result for AGCGCACA reads -0.0159; that for CCGATCAG, 0.089; that for TACCCAGA, 0.0597.

Take CACGCGTG: the “PBM E-score” value was -0.0524. The result for ATCGGGAA reads 0.086. In the case of CGTAGTTA, the “PBM E-score” value amounted to 0.191.

Turning to AACCGTAC, the “PBM E-score” value is 0.36. To CCCCGTTC belongs 0.344; to ACGTTAAT, 0.173. To CACCGAAC belongs -0.0353. Turning to GATAAGCC, the “PBM E-score” value is -0.17.

Turning to ACCCACCG, the “PBM E-score” value is -0.0166.

In the case of CCGCTCCA, the “PBM E-score” value is 0.121.
